# Laboratory results published in the supplement of paper PMC10037445.
# Whole data set: some 2,900 compounds, median “NF-kB SEAP reporter activity, fold change vs agonist alone” near 0.99, cut for the highest 2% near 2.6. This is one part of the list.
# How the values were obtained:
# RAW-Dual [1] = experiment: NF-kB SEAP reporter activity, fold change vs agonist alone; higher = enhanced NF-kB activity
# Method in brief: (§1)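 Library stock was pin-tooled at 50 nL into 384-well plates of RAW-Dual macrophages (50,000 cells/well, DMEM), followed 1 h later by a PRR agonist, and the cells were kept at 37 °C, 5% CO2. Supernatant collected after 20 hours was read for IRF by QuantiLuc luminescence and for NF-κB by QuantiBlue absorbance at 620 nm. Reporter activity is fold change over agonist-alone wells, and a well counted as cytotoxic when its IncuCyte confluency was below 70% of agonist controls in both mask sets.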
# RAW-Dual [2] = experiment: NF-kB SEAP reporter activity, fold change vs agonist alone; cytotoxicity flag (confluency mask): not cytotoxic; higher = enhanced NF-kB activity
# Method in brief: as §1
# RAW-Dual [3] = experiment: NF-kB SEAP reporter activity, fold change vs agonist alone; cytotoxicity flag (confluency mask): cytotoxic (confluency <70% of control); higher = enhanced NF-kB activity
# Method in brief: as §1
# [4] = agonist: ODN 1826 (TLR9) 0.5 ug/mL
# [5] = agonist: Pam2CSK4 (TLR2/6) 0.1 ug/mL
# [6] = agonist: Pam3CSK4 (TLR2/1) 0.1 ug/mL
# [7] = library stock concentration (final ~1000-fold dilution): 10 mM, cytotoxicity flag (confluency mask): not cytotoxic, agonist: Imiquimod (TLR7) […]
# [8] = library stock concentration (final ~1000-fold dilution): 10 mM, cytotoxicity flag (confluency mask): not cytotoxic, agonist: MPLA (TLR4) […]
# [9] = library stock concentration (final ~1000-fold dilution): 10 mM water, cytotoxicity flag (confluency mask): not cytotoxic, agonist: Imiquimod (TLR7) […]
# [10] = library stock concentration (final ~1000-fold dilution): 10 mM water, cytotoxicity flag (confluency mask): not cytotoxic, agonist: MPLA (TLR4) […]
smiles,measurement,setting,value
Cc1c(C(=O)N2CCOc3ccc(-c4ccc(N)nc4)cc3C2)ccc(S(C)(=O)=O)c1F,NF-kB SEAP reporter activity,"RAW-Dual [1]; library stock concentration (final ~1000-fold dilution): 2 mM, cytotoxicity flag (confluency mask): not cytotoxic, agonist: Imiquimod (TLR7) […]",0.846
same,NF-kB SEAP reporter activity,"RAW-Dual [1]; library stock concentration (final ~1000-fold dilution): 2 mM, cytotoxicity flag (confluency mask): not cytotoxic, agonist: MPLA (TLR4) […]",1.04
Cc1c(C(=O)N2CCOc3ccc(-c4ccc(N)nc4)cc3C2)ccc(S(C)(=O)=O)c1F (library stock concentration (final ~1000-fold dilution): 2 mM),NF-kB SEAP reporter activity,RAW-Dual [2]; agonist: LPS (TLR4) 0.1 ug/mL,1.07
same,NF-kB SEAP reporter activity,RAW-Dual [2]; [4],1.03
same,NF-kB SEAP reporter activity,RAW-Dual [2]; [5],1.05
same,NF-kB SEAP reporter activity,RAW-Dual [2]; [6],0.957
Cc1cc(C=Cc2ccc3cc(N(C)C)ccc3[n+]2C)c(C)n1-c1ccccc1,NF-kB SEAP reporter activity,"RAW-Dual [1]; library stock concentration (final ~1000-fold dilution): 10 mM, cytotoxicity flag (confluency mask): cytotoxic (confluency <70% of control), agonist: Imiquimod (TLR7) […]",2.11
same,NF-kB SEAP reporter activity,"RAW-Dual [1]; library stock concentration (final ~1000-fold dilution): 10 mM, cytotoxicity flag (confluency mask): cytotoxic (confluency <70% of control), agonist: MPLA (TLR4) […]",0.785
Cc1cc(C=Cc2ccc3cc(N(C)C)ccc3[n+]2C)c(C)n1-c1ccccc1 (library stock concentration (final ~1000-fold dilution): 10 mM),NF-kB SEAP reporter activity,RAW-Dual [3]; agonist: LPS (TLR4) 0.1 ug/mL,0.207
same,NF-kB SEAP reporter activity,RAW-Dual [3]; [4],1.8
same,NF-kB SEAP reporter activity,RAW-Dual [3]; [5],0.0623
same,NF-kB SEAP reporter activity,RAW-Dual [3]; [6],0.134
Cn1ncc(Cl)c1-c1cc(C(=O)NC(CN)Cc2ccc(F)c(F)c2)oc1Cl (configuration not stated) (library stock concentration (final ~1000-fold dilution): 10 mM),NF-kB SEAP reporter activity,RAW-Dual [2]; agonist: LPS (TLR4) 0.1 ug/mL,1.03
same,NF-kB SEAP reporter activity,RAW-Dual [2]; [4],2.35
same,NF-kB SEAP reporter activity,RAW-Dual [2]; [5],1.07
same,NF-kB SEAP reporter activity,RAW-Dual [2]; [6],1.44
Cn1ncc(Cl)c1-c1cc(C(=O)NC(CN)Cc2ccc(F)c(F)c2)oc1Cl (configuration not stated),NF-kB SEAP reporter activity,RAW-Dual [1]; [7],1.61
same,NF-kB SEAP reporter activity,RAW-Dual [1]; [8],1.61
CCC(C)C(NC(=O)C(CCCCN)NC(=O)C(CCC(=O)O)NN)C(=O)NC(CCC(N)=O)C(=O)NC(C)C(=O)NC(CCCCN)C(=O)N1CCCC1C(=O)NC(C)C(=O)C(=O)C(CC(C)C)NC(=O)C(CCC(N)=O)NC(=O)C(NC(=O)C(NC(=O)C(CCCNC(=N)N)NC(=O)C(Cc1ccccc1)NC(=O)C(CCCCNNC(Cc1ccccc1)C(=O)NC(CO)C(=O)NC(CCC(=O)O)C(=O)NC(CO)C(=O)NC(C(=O)NC(CC(N)=O)C(=O)NC(C=O)CO)C(C)O)NC(=O)C(Cc1ccccc1)NC(=O)C(CO)NC(=O)C(CCC(=O)O)NC(=O)C(CO)NC(=O)C(NC(=O)C(CC(N)=O)NC(=O)C(N)CO)C(C)O)C(C)C)C(C)O (configuration not stated),NF-kB SEAP reporter activity,RAW-Dual [1]; [9],0.927
same,NF-kB SEAP reporter activity,RAW-Dual [1]; [10],1.03
CCC(C)C(NC(=O)C(CCCCN)NC(=O)C(CCC(=O)O)NN)C(=O)NC(CCC(N)=O)C(=O)NC(C)C(=O)NC(CCCCN)C(=O)N1CCCC1C(=O)NC(C)C(=O)C(=O)C(CC(C)C)NC(=O)C(CCC(N)=O)NC(=O)C(NC(=O)C(NC(=O)C(CCCNC(=N)N)NC(=O)C(Cc1ccccc1)NC(=O)C(CCCCNNC(Cc1ccccc1)C(=O)NC(CO)C(=O)NC(CCC(=O)O)C(=O)NC(CO)C(=O)NC(C(=O)NC(CC(N)=O)C(=O)NC(C=O)CO)C(C)O)NC(=O)C(Cc1ccccc1)NC(=O)C(CO)NC(=O)C(CCC(=O)O)NC(=O)C(CO)NC(=O)C(NC(=O)C(CC(N)=O)NC(=O)C(N)CO)C(C)O)C(C)C)C(C)O (configuration not stated) (library stock concentration (final ~1000-fold dilution): 10 mM water),NF-kB SEAP reporter activity,RAW-Dual [2]; agonist: LPS (TLR4) 0.1 ug/mL,1.1
same,NF-kB SEAP reporter activity,RAW-Dual [2]; [4],1.16
same,NF-kB SEAP reporter activity,RAW-Dual [2]; [5],1.13
same,NF-kB SEAP reporter activity,RAW-Dual [2]; [6],1.74
O=C(O)[C@H](O)Cc1ccc(O)c(O)c1 (library stock concentration (final ~1000-fold dilution): 10 mM water),NF-kB SEAP reporter activity,RAW-Dual [2]; agonist: LPS (TLR4) 0.1 ug/mL,1.19
same,NF-kB SEAP reporter activity,RAW-Dual [2]; [4],1.22
same,NF-kB SEAP reporter activity,RAW-Dual [2]; [5],1.1
same,NF-kB SEAP reporter activity,RAW-Dual [2]; [6],1
O=C(O)[C@H](O)Cc1ccc(O)c(O)c1,NF-kB SEAP reporter activity,RAW-Dual [1]; [9],0.919
same,NF-kB SEAP reporter activity,RAW-Dual [1]; [10],1.04
Cn1cc(C2=C(c3cccc(N)c3)C(=O)NC2=O)c2ccccc21,NF-kB SEAP reporter activity,RAW-Dual [1]; [7],1.55
same,NF-kB SEAP reporter activity,RAW-Dual [1]; [8],1.7
Cn1cc(C2=C(c3cccc(N)c3)C(=O)NC2=O)c2ccccc21 (library stock concentration (final ~1000-fold dilution): 10 mM),NF-kB SEAP reporter activity,RAW-Dual [2]; agonist: LPS (TLR4) 0.1 ug/mL,1.83
same,NF-kB SEAP reporter activity,RAW-Dual [2]; [4],2.18
same,NF-kB SEAP reporter activity,RAW-Dual [2]; [5],1.59
same,NF-kB SEAP reporter activity,RAW-Dual [2]; [6],2.2
[O-][n+]1cccc(-c2nc3c(Cl)cccc3cc2C(Nc2ncnc3cccnc23)C(F)(F)F)c1 (configuration not stated) (library stock concentration (final ~1000-fold dilution): 10 mM),NF-kB SEAP reporter activity,RAW-Dual [2]; agonist: LPS (TLR4) 0.1 ug/mL,2.33
same,NF-kB SEAP reporter activity,RAW-Dual [2]; [4],1.3
same,NF-kB SEAP reporter activity,RAW-Dual [2]; [5],0.992
same,NF-kB SEAP reporter activity,RAW-Dual [2]; [6],1.38
[O-][n+]1cccc(-c2nc3c(Cl)cccc3cc2C(Nc2ncnc3cccnc23)C(F)(F)F)c1 (configuration not stated),NF-kB SEAP reporter activity,RAW-Dual [1]; [7],0.648
same,NF-kB SEAP reporter activity,RAW-Dual [1]; [8],1.56
